Laboratory results published in PubChem BioAssay AID1508624 (National Center for Advancing Translational Sciences (NCATS), 2021).
The whole screen tested about 48,000 compounds, of which about 120 (0.25%) were called active. Roughly 4% stayed inconclusive and do not appear here. Calls follow the shape of the dose curve; as a rule, active = well fitted activation curve with a large enough effect; inconclusive = small, poorly fitted or top-dose-only effect, or another doubt; inactive = no such curve, though single readings can be large or run the other way. The list shows a part of the results.

experiment: Primary qHTS for Identification of Small Molecule Activators of Huntingtin-Antisense Promoter Activity; conditions: HEK293 HTT-AS promoter firefly luciferase reporter (activity 0% = vehicle and -100% = no light), 24 h; series mostly up to 57.5 µM; activity change, positive = activation: at the top concentration; also: nearly all actives have a fitted effect of over 55% in size
Outline: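 Firefly luciferase signal from promoter-reporter HEK293 cells was scaled between vehicle (0%) and zero RLU (-100%). Compounds were tested at final concentrations of up to 57.5 uM over 24 h at 37 degrees C. PTC124 at 50 uM final served as control inhibitor.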

Activity change, positive = activation, inactive:
O=c1oc2c(CN3CCOCC3)c(O)ccc2cc1-c1ccccc1 4.42%
COc1ccc(N2CCN(C(=O)c3noc4c3CCCCC4)CC2)cc1 15.6%
O=C(NCCc1nc2ccccc2n1Cc1ccc(Cl)cc1)c1ccccc1 -37.9%
CCOC(=O)c1ccccc1NC(=O)c1sc2nc(-c3ccc(F)cc3)cn2c1C 5.14%
Cc1nnc(NC(=O)CSc2nc3c([nH]c4ccccc43)c(=O)n2-c2cccc(Cl)c2)s1 -9.15%
COc1ccc(C)cc1NC(=O)NCCn1nnc2cc(S(=O)(=O)N(C)C)ccc21 -4.12%
COc1ccc(-c2nc3ccccc3o2)cc1NC(=O)c1cc(Br)ccc1OC -4.07%
Cc1ccc(C(=O)OCc2cc(=O)n3nc(CC(C)C)sc3n2)cc1 -8.66%
COc1ccc(CCNC(=O)c2cnc3sc(N4CCCCCC4)nn3c2=O)cc1 -16.6%
CC(C(=O)O)c1ccc2c(c1)[nH]c1ccc(Cl)cc12 (stereo not drawn) -1.74%
Cc1cccc(N2CCN(C(=O)Cc3c(C(=O)O)c(C)cn3C)CC2C)c1 (stereo not drawn) -15.2%
CN(Cc1ccccc1)C(=O)c1ccc(CSc2nc3cccnc3n2Cc2ccccc2)cc1 -33.2%
COC(=O)c1c(NC(=O)COc2ccc(C(C)C)cc2)sc2c1CCCC2 0.0014%
COc1ccc(C2CC(=O)Nc3c2c(C)nn3-c2nc(C)cc(C)n2)c(OC)c1OC (stereo not drawn) 2.1%
COc1ccccc1CCNC(=O)C1(c2cccs2)CCOCC1 -8.15%
CCc1cccc(NC(=O)CCn2nc(C)cc2C)c1 -0.178%
CCC(=O)NCCc1sc2nc(-c3ccc(OC)cc3)nn2c1C 21.7%
CCCS(=O)(=O)Nc1cccc(-c2cn3ccsc3n2)c1 0.221%
Cc1cccc(CSc2nc3ccncc3n2CC(=O)N(C)C2CCCCC2)c1 -22.8%
COc1ccc(CCNC(=O)c2ccc3nc(CCc4ccccc4)oc3c2)cc1OC -8.33%
COc1ccc(NC(=O)Cn2c(=O)oc3cc(S(=O)(=O)N4CCCC4)ccc32)cc1OC -31.6%
COc1ccc(OC)c(NC(=O)c2nnn(CC(=O)Nc3ccc(C(C)C)cc3)c2N)c1 -13.2%
CCCCc1cc2ccccc2c(OCCN(C)C)n1 -35.1%
COc1ccc(NC(=O)Cn2cnc3c(nc4n3CCCCC4)c2=O)cc1Cl -1.69%
Cc1cccc(NC(=O)CN2C(=O)C(c3ccc(F)cc3)=NC23CCCCCC3)c1C -51.1%
Cc1cc2c(cc1S(=O)(=O)NCc1ccc(F)cc1)OCC(=O)N2 -16.1%
COc1ccc(NC(=O)CN2C(=O)COc3ccc(S(=O)(=O)NC4CCCC4)cc32)cc1OC -8.57%
Cc1ccc(-n2ncc3c(NC4CCCCC4)ncnc32)cc1C -21%
CCC(C(=O)NC(=O)NC(C)=O)c1ccccc1 (stereo not drawn) -9.86%
O=C(c1ccccc1)n1nc(-c2ccc(Cl)cc2)nc1NCc1ccco1 26.4%
CSc1ccc(CCNC(=O)Cn2ncc3c([nH]c4ccccc43)c2=O)cc1 -16.5%
CCOC(=O)c1cc2c(=O)n3ccccc3nc2n(CCOC)c1=NC(=O)c1c(-c2c(F)cccc2Cl)noc1C -29.3%
Cc1ccc2occ(CC(=O)Nc3c(C)cccc3C)c2c1 -13.7%
CCCN(C(=O)c1ccc2c(=O)n3c(nc2c1)CCCCC3)c1cccc(Cl)c1 -5.34%
Cc1cc(C)cc(NCc2nnc3n2CCCCC3)c1 -4.28%
COc1ccc(OCC(=O)N2CCN(C(=O)c3ccc(OC)c(OC)c3)CC2)cc1 -4.14%
Cc1cccc(C)c1NC(=O)CCSCCc1ccccn1 -10.8%
Cc1cccc(C)c1NC(=O)C(C)N (stereo not drawn) -7.85%
COc1cn(CC(=O)Nc2ccc(C)cc2)c(CN2CCCCC2)cc1=O 0.383%
CC(=O)N1CCc2cc(Br)cc(S(=O)(=O)CCC(=O)NCc3ccc(F)cc3)c21 -5.41%
O=C(CCNS(=O)(=O)c1ccc2c(c1)CCN2C(=O)C1CC1)Nc1ccc(Cl)cc1 -39.5%
COc1ccccc1CN1CCC(CNC(=O)c2cnn(-c3cccc(Cl)c3)c2C2CCN(C(=O)OC(C)(C)C)CC2)CC1 -13.8%
COC(=O)c1c(NC(=O)c2cc(=O)c3cc(C)cc(C)c3o2)sc2c1CCC2 4.37%
CCOC(=O)c1ccc(NC(=O)c2nc(SCc3ccc(F)cc3)ncc2Cl)cc1 -32.1%
COc1ccccc1NC(=O)c1cc2cc3ccc(OC)c(Cl)c3nc2s1 -4.24%
Cc1ccc(CC(=O)NCc2nc(-c3ccccc3)no2)cc1 -4.31%
CCCCn1c(=O)c2oc3ccccc3c2n(Cc2ccc(C)cc2)c1=O -3.93%
COc1ccc2ncc3c(-c4ccc(C)c(C)c4)nn(CC(=O)Nc4ccccc4)c3c2c1 -18.1%
Cc1cc(SCC(=O)Nc2ccc(F)cc2F)nc(=O)[nH]1 -11.4%
COc1ccccc1C(=O)NC(=O)Nc1ccc(-c2cc(C(F)(F)F)nn2-c2ccccc2)cc1 -62.7%
CCc1ccc(C(=O)c2cn(CC(=O)Nc3ccc4c(c3)OCO4)c3ccc(Cl)cc3c2=O)cc1 -12.7%
CCc1ccc(N(CC)C(=O)c2cn(C)c(=O)c3cc(OC)c(OC)cc23)cc1 -11.8%
NS(=O)(=O)c1ccc(N2CCCCS2(=O)=O)cc1 1.66%
CC(C)(C)C1CCc2c(sc3nc(-c4cc5cc(Cl)ccc5oc4=O)[nH]c(=O)c23)C1 (stereo not drawn) 1.05%
CCN(CC)c1ccc(NC(=O)C2CCN(S(=O)(=O)c3c(C)noc3/C=C/c3ccccc3F)CC2)c(C)c1 2.84%
Cc1ccc(NC(=O)Cn2nc(C(F)(F)F)c3c2CCCC3)cc1 -22.9%
Cc1ccc(S(=O)(=O)NCCc2nnc3ccc(SCC(=O)Nc4c(C)cc(C)cc4C)nn23)cc1 -15.1%
CCOc1ccc(CCNC(=O)c2c3c(nc4ccccc24)C(=O)N(C2CCCCC2)C3)cc1 -19.5%
CCn1c(CNC(=O)c2ccc(OC)cc2)nnc1SCC(=O)Nc1cccc(C)c1 -11.4%
Cc1ccc(S(=O)(=O)N2CCCc3cc(NC(=O)c4ccc(Cl)cc4)ccc32)cc1 12.3%
O=C(Nc1cccc(C(F)(F)F)c1)Nc1cc(S(=O)(=O)NC2CC2)ccc1-c1ccsc1 -18.3%
Cc1ccc(C)c(NC(=O)c2oc(=O)c3ccccc3c2-c2ccccc2)c1 -32.9%
CCCc1nn2c(=O)cc(COC(=O)c3ccc4c(c3)OCO4)nc2s1 6.06%
Cc1cc2nc(-c3ccc(OCc4ccccc4F)cc3)cc(C(F)(F)F)n2n1 0.616%
Cc1ccc(-c2c(C(=O)Nc3ccccc3F)oc(=O)c3ccccc23)cc1 -12.8%
CCOC(=O)c1cccc(NC(=O)C2=C(C)C(=O)OC23CCCCC3)c1 -16.9%
Cc1ccc(C)c(N2CCN(C(=O)Cn3cnc4nc5c(cc4c3=O)CCCC5)CC2)c1 -33.5%
Cc1ccc(C)c(Cn2c(SCC(=O)NCc3ccccc3)nc3ccccc32)c1 -30.9%
Cn1c(NCCN)nc2c1c(=O)n(Cc1ccccc1)c(=O)n2C 8.44%
O=C(Cn1cc(S(=O)(=O)Cc2ccccc2F)c2ccccc21)Nc1ccc(F)c(Cl)c1 -43.9%
COc1ccc(CNc2ncnc3c2c(-c2ccccc2)cn3-c2ccc(C)c(Cl)c2)cc1 -25%
COc1cccc(C(=O)Nc2nc(-c3nnn(-c4cccc(Cl)c4C)c3C)ns2)c1 -31.1%
COc1ccc(NC(=O)Cn2c(=O)n(-c3ccc(OC)cc3)c(=O)c3sc4ccccc4c32)cc1 -5.21%
COc1ccc2c(CNCc3ccco3)c(C(=O)O)n(Cc3cccc(F)c3)c2c1 -24.3%
CCCN(CCC)C(=O)C1CCN(c2cc(C)nc3c(-c4ccc(Cl)cc4)c(C)nn23)CC1 -1.05%
COc1ccc(C(=O)Nc2ccc(-c3nc4ccccc4s3)c(Cl)c2)cc1Cl -6.17%
Cn1c(NCCCO)nc2c1c(=O)n(Cc1cccc(F)c1)c(=O)n2C 5.72%
COc1cc(C(=O)Nc2cc(C)c(O)c(-c3nc4ccccc4s3)c2)cc(OC)c1OC -14.9%
O=C(NCCO)c1ccc(-c2nnc(Nc3ccc(OC(F)(F)Cl)cc3)c3ccccc23)cc1 -49.1%
O=C(CSc1nc2ccsc2c(=O)n1-c1ccc(Br)cc1)NCc1ccc(Cl)cc1 -23.9%
COc1cccc(-c2nc(CS(=O)(=O)CC(=O)Nc3ccc(C)c(Cl)c3)c(C)o2)c1 -31.2%
COc1ccc(CCNC(=O)Cc2ccc(NC(=O)N3CCSc4ncccc43)cc2)cc1OC -11.7%
Cc1cccc(NC(=O)c2cc3c([nH]c2=O)CC(c2ccccc2)CC3=O)c1 (stereo not drawn) -4.45%
O=C(Cn1c(=O)n(Cc2ccc(F)cc2)c(=O)c2sc3ccccc3c21)Nc1ccc(F)cc1F -8.9%
COc1cc(C(=O)NCc2nc(-c3ccc(Cl)cc3)no2)cc(OC)c1OC -8.93%
COC(=O)CCNC(=O)N1CCN(c2nnc(C)c3c(C)n(-c4ccccc4)nc23)CC1 -1.83%
COc1cccc(CNC(=O)Cn2cccc2C(=O)c2ccccc2)c1 21.3%
COc1ccc(C(=O)N2CCN(c3nc4c(OC)cccc4s3)CC2)cc1OC -26.4%
CCOC(=O)c1cc(-c2ccccc2)n(-c2cccc(C(=O)NC(C)(C)C)c2)c1C -30%
CCOc1ccc(S(=O)(=O)NCc2cccn2Cc2cccc(C)c2)cc1 -17.2%
CC(C)COc1ccc(C(=O)N(Cc2cccc(F)c2)C2CCS(=O)(=O)C2)cc1 (stereo not drawn) -15.1%
Cc1ccccc1C(=O)Nc1ccc(C(=O)N2CCCC(O)c3cc(Cl)ccc32)c(C)c1 (stereo not drawn) -17.8%
CCOC(=O)c1cnc2ccc(OCC)cc2c1NCCc1ccc(OC)c(OC)c1 -13.4%
CCCn1c(=N)c(C(=O)NC2CCCCC2)cc2c(=O)n3cc(C)ccc3nc21 -6.6%
CCN1CCc2c(sc(-n3cccc3)c2C(CCC(C)C)NC(=O)NCCC(=O)OC)C1 (stereo not drawn) -14.2%
CC[N+](CC)(CC)CCOc1ccc(/C=C/c2ccccc2)cc1 -33.9%
CCc1cccc(C)c1NC(=O)C(NS(=O)(=O)c1ccc2c(c1)CCC(=O)N2)c1ccccc1 (stereo not drawn) -17.2%
CCCn1c2ccccc2c2cnn(CC(=O)NCCCOC(C)C)c(=O)c21 -8.7%
